# Results taken from the supplement of paper PMC8728848.
# The list shows a part of the results.
# Tests used:
# Experiment in all cases: glycan array binding signal (z-score within array); higher = stronger binding
# Settings in all cases: glycan notation: IUPAC condensed, linker removed
# [1] = target: Fuc(a1-2)Gal
# In short: (§1)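 The binding signal is a Z-score computed within each array. Data were drawn from 3228 arrays in the Consortium for Functional Glycomics database, restricted to those with a known protein sequence. Scores were averaged over arrays of the same protein sequence at different concentrations or buffers, and over linkers, and negative values can be taken as non-binding.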
# [2] = target: Fuc(a1-2)Gal(b1-3)GalNAc
# In short: as §1
# [3] = target: Fuc(a1-2)Gal(b1-3)GalNAc(a1-3)[Fuc(a1-2)]Gal(b1-4)Glc
# In short: as §1
# [4] = target: Fuc(a1-2)Gal(b1-3)GalNAc(a1-3)[Fuc(a1-2)]Gal(b1-4)GlcNAc
# In short: as §1
# [5] = target: Fuc(a1-2)Gal(b1-3)GalNAc(b1-3)Gal
# In short: as §1
# [6] = target: Fuc(a1-2)Gal(b1-3)GalNAc(b1-3)Gal(a1-4)Gal(b1-4)Glc
# In short: as §1
# [7] = target: Fuc(a1-2)Gal(b1-3)GalNAc(b1-4)[Neu5Ac(a2-3)]Gal(b1-4)Glc
# In short: as §1
# [8] = target: Fuc(a1-2)Gal(b1-3)GlcNAc
# In short: as §1
# [9] = target: Fuc(a1-2)Gal(b1-3)GlcNAc(b1-2)Man(a1-3)[Fuc(a1-2)Gal(b1-3)GlcNAc(b1-2)Man(a1-6)]Man(b1-4)GlcNAc(b1-4)GlcNAc
# In short: as §1
# [10] = target: Fuc(a1-2)Gal(b1-3)GlcNAc(b1-2)Man(a1-3)[Fuc(a1-2)Gal(b1-3)GlcNAc(b1-2)Man(a1-6)]Man(b1-4)GlcNAc(b1-4)[Fuc(a1-6)]GlcNAc
# In short: as §1
# [11] = target: Fuc(a1-2)Gal(b1-3)GlcNAc(b1-3)Gal(b1-4)Glc
# In short: as §1
# [12] = target: Fuc(a1-2)Gal(b1-3)GlcNAc(b1-3)GalNAc
# In short: as §1
# [13] = target: Fuc(a1-2)Gal(b1-3)GlcNAc(b1-3)[Fuc(a1-2)Gal(b1-3)GlcNAc(b1-6)]GalNAc
# In short: as §1
# [14] = target: Fuc(a1-2)Gal(b1-3)GlcNAc(b1-3)[Gal(b1-4)GlcNAc(b1-6)]Gal(b1-4)Glc
# In short: as §1
# [15] = target: Fuc(a1-2)Gal(b1-3)GlcNAc(b1-3)[Neu5Ac(a2-6)Gal(b1-4)GlcNAc(b1-6)]Gal(b1-4)Glc
# In short: as §1
# [16] = target: Fuc(a1-2)Gal(b1-3)GlcNAc6S
# In short: as §1
# [17] = target: Fuc(a1-2)Gal(b1-3)[Fuc(a1-4)]GlcNAc
# In short: as §1
# [18] = target: Fuc(a1-2)Gal(b1-3)[Fuc(a1-4)]GlcNAc(b1-2)Man(a1-3)[Fuc(a1-2)Gal(b1-3)[Fuc(a1-4)]GlcNAc(b1-2)Man(a1-3)]Man(b1-4)GlcNAc(b1-4)GlcNAc
# In short: as §1
# [19] = target: Fuc(a1-2)Gal(b1-3)[Fuc(a1-4)]GlcNAc(b1-2)Man(a1-3)[Fuc(a1-2)Gal(b1-3)[Fuc(a1-4)]GlcNAc(b1-2)Man(a1-6)]Man(b1-4)GlcNAc(b1-4)[Fuc(a1-6)]GlcNAc(b1-4)[Fuc(a1-6)]GlcNAc
# In short: as §1
# [20] = target: Fuc(a1-2)Gal(b1-3)[Fuc(a1-4)]GlcNAc(b1-3)[Fuc(a1-3)[Gal(b1-4)]GlcNAc(b1-6)]Gal(b1-4)Glc
# In short: as §1
# [21] = target: Fuc(a1-2)Gal(b1-3)[Fuc(a1-4)]GlcNAc(b1-3)[Gal(b1-4)GlcNAc(b1-6)]Gal(b1-4)Glc
# In short: as §1
# [22] = target: Fuc(a1-2)Gal(b1-4)Fuc(a1-3)]GlcNAc(b1-2)Man(a1-3)[Fuc(a1-2)Gal(b1-4)[Fuc(a1-3)]GlcNAc(b1-2)Man(a1-6)]Man(b1-4)GlcNAc(b1-4)GlcNAc
# In short: as §1
# [23] = target: Fuc(a1-2)Gal(b1-4)Glc
# In short: as §1
# [24] = target: Fuc(a1-2)Gal(b1-4)Glc6S
# In short: as §1
# [25] = target: Fuc(a1-2)Gal(b1-4)GlcNAc
# In short: as §1
# [26] = target: Fuc(a1-2)Gal(b1-4)GlcNAc(b1-2)Man
# In short: as §1
# [27] = target: Fuc(a1-2)Gal(b1-4)GlcNAc(b1-2)Man(a1-3)[Fuc(a1-2)Gal(b1-4)GlcNAc(b1-2)Man(a1-6)]Man(b1-4)GlcNAc(b1-4)GlcNAc
# In short: as §1
# [28] = target: Fuc(a1-2)Gal(b1-4)GlcNAc(b1-2)Man(a1-3)[Fuc(a1-2)Gal(b1-4)GlcNAc(b1-2)Man(a1-6)]Man(b1-4)GlcNAc(b1-4)[Fuc(a1-6)]GlcNAc
# In short: as §1
# [29] = target: Fuc(a1-2)Gal(b1-4)GlcNAc(b1-2)[Fuc(a1-2)Gal(b1-4)GlcNAc(b1-4)]Man(a1-3)[Fuc(a1-2)Gal(b1-4)GlcNAc(b1-2)Man(a1-6)]Man(b1-4)GlcNAc(b1-4)GlcNAc
# In short: as §1
# [30] = target: Fuc(a1-2)Gal(b1-4)GlcNAc(b1-3)Gal(b1-4)GlcNAc
# In short: as §1
# [31] = target: Fuc(a1-2)Gal(b1-4)GlcNAc(b1-3)Gal(b1-4)GlcNAc(b1-2)Man(a1-3)[Fuc(a1-2)Gal(b1-4)GlcNAc(b1-3)Gal(b1-4)GlcNAc(b1-2)Man(a1-6)]Man(b1-4)GlcNAc(b1-4)GlcNAc
# In short: as §1
# [32] = target: Fuc(a1-2)Gal(b1-4)GlcNAc(b1-3)Gal(b1-4)GlcNAc(b1-3)Gal(b1-4)GlcNAc
# In short: as §1
# [33] = target: Fuc(a1-2)Gal(b1-4)GlcNAc(b1-3)GalNAc
# In short: as §1
# [34] = target: Fuc(a1-2)Gal(b1-4)GlcNAc(b1-3)[Fuc(a1-2)Gal(b1-4)GlcNAc(b1-6)]GalNAc
# In short: as §1
# [35] = target: Fuc(a1-2)Gal(b1-4)GlcNAc(b1-3)[Fuc(a1-3)[Gal(b1-4)]GlcNAc(b1-6)]Gal(b1-4)Glc
# In short: as §1
# [36] = target: Fuc(a1-2)Gal(b1-4)GlcNAc(b1-6)GalNAc
# In short: as §1
# [37] = target: Fuc(a1-2)Gal(b1-4)GlcNAc6S
# In short: as §1
# [38] = target: Fuc(a1-2)Gal(b1-4)[Fuc(a1-3)]GlcNAc
# In short: as §1
# [39] = target: Fuc(a1-2)Gal(b1-4)[Fuc(a1-3)]GlcNAc(b1-2)Man(a1-3)[Fuc(a1-2)Gal(b1-4)[Fuc(a1-3)]GlcNAc(b1-2)Man(a1-6)]Man(b1-4)GlcNAc(b1-4)[Fuc(a1-6)]GlcNAc
# In short: as §1
# [40] = target: Fuc(a1-2)Gal(b1-4)[Fuc(a1-3)]GlcNAc(b1-2)[Fuc(a1-2)Gal(b1-4)[Fuc(a1-3)]GlcNAc(b1-4)]Man(a1-3)[Fuc(a1-2)Gal(b1-4)[Fuc(a1-3)]GlcNAc(b1-2)Man(a1-6)]Man(b1-4)GlcNAc(b1-4)GlcNAc
# In short: as §1
# [41] = target: Fuc(a1-2)Gal(b1-4)[Fuc(a1-3)]GlcNAc(b1-3)Gal(b1-4)[Fuc(a1-3)]GlcNAc
# In short: as §1
# [42] = target: Fuc(a1-2)Gal(b1-4)[Fuc(a1-3)]GlcNAc(b1-3)Gal(b1-4)[Fuc(a1-3)]GlcNAc(b1-3)Gal(b1-4)[Fuc(a1-3)]GlcNAc
# In short: as §1
# [43] = target: Fuc(a1-2)Gal(b1-4)[Fuc(a1-3)]GlcNAc(b1-3)GalNAc
# In short: as §1
# [44] = target: Fuc(a1-2)Gal(b1-4)[Fuc(a1-3)]GlcNAc(b1-3)[Neu5Ac(a2-6)Gal(b1-4)GlcNAc(b1-6)]Gal(b1-4)Glc
# In short: as §1
# [45] = target: Fuc(a1-2)Gal3S(b1-4)GlcNAc
# In short: as §1
binder,measurement,setting,value
VLRB.aGPA.23-GCN4-biotin (Petromyzon marinus) (protein) ACPSQCSCSGTEVNCAGKSLASVPAGIPTTTRVLYLNSNQITKLEPGVFDRLANLRELHLWGNQLVSLPPGVFDNLANLEKLWLNSNQLTSLPAGLFDRLVNLEHLGLCCMKLTELPSGAFDKLTRLKQLGLDQNQLKSIPDGAFARLPSLTHVWLHTNPWDCQCTDILYLSGWVAQHSSIVGEGWPWRHSPDSAKCSGTNTPVRAVTEASTSPSKCP,glycan array binding signal (z-score),[1],13.2
same,glycan array binding signal (z-score),[2],12.6
same,glycan array binding signal (z-score),[3],-0.07
same,glycan array binding signal (z-score),[4],-0.077
same,glycan array binding signal (z-score),[5],-0.022
same,glycan array binding signal (z-score),[6],-0.083
same,glycan array binding signal (z-score),[7],-0.082
same,glycan array binding signal (z-score),[8],-0.082
same,glycan array binding signal (z-score),[9],-0.074
same,glycan array binding signal (z-score),[10],-0.077
same,glycan array binding signal (z-score),[11],-0.077
same,glycan array binding signal (z-score),[12],-0.081
same,glycan array binding signal (z-score),[13],-0.076
same,glycan array binding signal (z-score),[14],-0.083
same,glycan array binding signal (z-score),[15],-0.078
same,glycan array binding signal (z-score),[16],-0.058
same,glycan array binding signal (z-score),[17],-0.079
same,glycan array binding signal (z-score),[18],-0.074
same,glycan array binding signal (z-score),[19],-0.063
same,glycan array binding signal (z-score),[20],-0.087
same,glycan array binding signal (z-score),[21],-0.074
same,glycan array binding signal (z-score),[22],-0.074
same,glycan array binding signal (z-score),[23],-0.086
same,glycan array binding signal (z-score),[24],-0.072
same,glycan array binding signal (z-score),[25],-0.076
same,glycan array binding signal (z-score),[26],-0.083
same,glycan array binding signal (z-score),[27],-0.084
same,glycan array binding signal (z-score),[28],-0.081
same,glycan array binding signal (z-score),[29],-0.082
same,glycan array binding signal (z-score),[30],-0.085
same,glycan array binding signal (z-score),[31],-0.051
same,glycan array binding signal (z-score),[32],-0.076
same,glycan array binding signal (z-score),[33],-0.08
same,glycan array binding signal (z-score),[34],-0.08
same,glycan array binding signal (z-score),[35],-0.076
same,glycan array binding signal (z-score),[36],-0.084
same,glycan array binding signal (z-score),[37],-0.082
same,glycan array binding signal (z-score),[38],-0.077
same,glycan array binding signal (z-score),[39],-0.064
same,glycan array binding signal (z-score),[40],-0.079
same,glycan array binding signal (z-score),[41],-0.086
same,glycan array binding signal (z-score),[42],-0.074
same,glycan array binding signal (z-score),[43],-0.064
same,glycan array binding signal (z-score),[44],-0.074
same,glycan array binding signal (z-score),[45],-0.079
